Experimental data reported in article PMC4336329 (PLoS ONE, 2015).
The campaign covered roughly 310,000 compounds. About 14,000 (4.5%) showed an effect of 50% or more. The effect is printed as a negative number. This is one part of the list.

molecular target: human ether-à-go-go-related gene (hERG) potassium channel (human, UniProt Q12809); assay: primary screen, population patch clamp on CHO cells stably expressing hERG
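Note: peak tail current of the secondary pulse compared with the same well before compound.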

human ether-à-go-go-related gene (hERG) potassium channel, sequence (Q12809 whole entry, looked up): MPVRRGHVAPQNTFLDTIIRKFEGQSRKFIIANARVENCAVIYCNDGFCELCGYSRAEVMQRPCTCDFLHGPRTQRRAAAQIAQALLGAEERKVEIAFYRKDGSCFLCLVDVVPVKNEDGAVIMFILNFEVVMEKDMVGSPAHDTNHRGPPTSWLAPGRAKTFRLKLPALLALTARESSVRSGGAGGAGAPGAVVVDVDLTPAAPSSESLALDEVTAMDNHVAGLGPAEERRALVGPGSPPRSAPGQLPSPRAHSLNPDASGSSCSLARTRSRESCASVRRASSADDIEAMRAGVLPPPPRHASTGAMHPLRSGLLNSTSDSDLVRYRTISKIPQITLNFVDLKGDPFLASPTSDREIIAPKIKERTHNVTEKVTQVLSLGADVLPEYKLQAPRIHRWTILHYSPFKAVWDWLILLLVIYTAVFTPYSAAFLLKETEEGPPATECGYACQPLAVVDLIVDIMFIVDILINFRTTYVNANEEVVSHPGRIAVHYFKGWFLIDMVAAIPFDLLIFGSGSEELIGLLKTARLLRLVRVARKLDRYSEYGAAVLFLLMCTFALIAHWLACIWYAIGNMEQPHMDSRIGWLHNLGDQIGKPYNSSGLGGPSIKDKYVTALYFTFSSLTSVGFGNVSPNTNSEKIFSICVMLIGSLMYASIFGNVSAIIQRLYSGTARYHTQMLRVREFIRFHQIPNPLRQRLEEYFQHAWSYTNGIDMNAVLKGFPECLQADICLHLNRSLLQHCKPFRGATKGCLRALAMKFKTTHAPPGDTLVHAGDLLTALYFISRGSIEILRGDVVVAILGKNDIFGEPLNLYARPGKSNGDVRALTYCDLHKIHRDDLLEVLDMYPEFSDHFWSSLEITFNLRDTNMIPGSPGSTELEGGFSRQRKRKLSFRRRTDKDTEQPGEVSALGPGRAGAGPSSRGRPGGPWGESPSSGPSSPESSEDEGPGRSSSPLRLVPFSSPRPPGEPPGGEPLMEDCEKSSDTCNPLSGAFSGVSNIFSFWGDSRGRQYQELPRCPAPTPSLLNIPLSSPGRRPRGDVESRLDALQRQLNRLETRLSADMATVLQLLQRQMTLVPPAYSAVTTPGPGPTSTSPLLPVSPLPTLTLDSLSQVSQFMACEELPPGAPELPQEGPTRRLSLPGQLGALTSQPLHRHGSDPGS

| SMILES | hERG current change (%, negative = inhibition) at 10uM [%] |
| --- | --- |
| CC(=O)Nc1nc2ccccc2n1Cc1ccc(C)cc1 | -1.03 |
| CCC1(c2ccccc2)NC(=O)N(C)C1=O (stereo not shown) | -29.6 |
| CCC(c1nnnn1Cc1ccco1)N(Cc1ccccc1OC)Cc1cc2cc(C)ccc2[nH]c1=O (stereo not shown) | -2.41 |
| CCOC(=O)c1c(C)c(C(=O)Nc2ccccc2)c(C)n1CC | 2.32 |
| CN(C(=O)c1ccccn1)c1nnc(-c2cnccn2)s1 | -22.5 |
| COc1ccc(N2CCN(C(=O)COC(=O)CCc3ccccc3)CC2)cc1 | -0.829 |
| Cc1cc(=O)[nH]c(SCC(=O)Nc2nonc2C)n1 | 17.8 |
| C/C(=N\NC(=S)Nc1ccc(C)cc1)c1cc2ccccc2o1.CN(C)C=O | 13 |
| CCN(CCNC(=O)C1CCN(S(=O)(=O)c2c(C)noc2C)CC1)c1ccccc1 | -1.06 |
| CCCCn1c(N)c(N(CC(C)C)C(=O)CSCc2cccc(C)c2)c(=O)[nH]c1=O | 12.7 |
| N#Cc1cc(N2CCOCC2)nc2ccccc12 | 1.25 |
| COc1ccc(CCNC(=O)C2CC(=O)N(c3ccc(C)cc3)C2)cc1 (stereo not shown) | 12.7 |
| CCN(CC)CCN(C(=O)CCOc1ccccc1)c1nc2c(F)cc(F)cc2s1.Cl | -8.13 |
| COC(=O)c1ccc(/C=N/OCC(=O)NC2CCCC(C)C2C)cc1 (stereo not shown) | -5.19 |
| CCCC1C(=O)Nc2ccccc2N1C(=O)c1ccc(C(C)(C)C)cc1 (stereo not shown) | 19.3 |
| CN(C)c1ccc(CNC(=O)C2CCN(S(=O)(=O)c3ccc4c(c3)oc(=O)n4C)CC2)cc1 | 9.88 |
| Cc1ccc(S(=O)(=O)Nc2cccc(C(=O)N3CCCC3)c2)cc1F | -0.933 |
| O=C(O)c1cn(Cc2ccccc2)nc1-c1ccccc1 | 19.7 |
| Cc1ccc2[nH]c(O)c(N=Nc3ccccc3C)c2c1 | 15.1 |
| Cc1occc1C(=O)N/N=C/c1cccnc1 | 1.61 |
| Cc1cccc2cc(COC(=O)c3cccnc3)c(=O)[nH]c12 | -2.37 |
| O=C(CCn1ccc2ccccc21)Nc1ccc(N2CCOCC2)cc1 | 3.42 |
| CCN(CC)S(=O)(=O)c1ccc(N2CCOCC2)c(NC(=O)C2COc3ccccc3O2)c1 (stereo not shown) | -4.79 |
| Cc1ncoc1C(=O)NC1CC(C)(C)Cc2c1cnn2-c1ccc(F)cc1 (stereo not shown) | -20.7 |
| CSC1CCCCC1(O)CSc1nc2ccccc2o1 (stereo not shown) | 4.87 |
